Measured values as given in the supplement of paper PMC11417369.
The list shows a part of the results.

What follows are sequences tested on PfHDP1 homeodomain (GST-tagged) (assay: gcPBM binding intensity (ln(normalized median fluorescence intensity)); higher = stronger DNA binding).
Outline: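 The binding buffer was 1× PBS containing 1% milk, 0.2 mg/ml BSA, 0.5% salmon testes DNA and 0.03% Triton X-100. In it, GST-tagged P. falciparum DNA-binding domains expressed in E. coli were applied for 1 h to an Agilent 4 × 180k array of primer-extended double-stranded 36-bp intergenic genomic probes plus negative controls. Binding intensity, read with Alexa488 anti-GST antibody and a 488 nm scan, is the highest Masliner-normalised natural-log median intensity across replicate spots of either probe orientation.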

Sequence	gcPBM binding intensity (ln)
AATAATTGTTAAAGTTGTACTATACGTATATAAGAA [XGTACX_site1432]	6.94
TATATATAGAAACACACACACACCAAAGCGTAGCGC [CACACA_site62]	6.63
ATTTACAAAAGGAAAGTGCAAACATGTGATTAAACA [CACACA_negctrl_site714]	8.57
GCCAAAAGGATATGCACACACACACCCATATATATA [CACACA_site2198]	9.58
AAAGGATATAGACACACACACACATATATATATATA [CACACA_site2200]	9.24
ATCATTTTTAAAGGAACACACAAAAAAAATTAGAAT [CACACA_site1370]	6.83
GTTCAAAATATGAACACACACATATAGATTTATATA [CACACA_site7054]	6.43
CATATACATCCACATACACACATACACCCATACACA [CACACA_site5038]	7.3
TGAAAAGTAAAATACACACACATAATATAATTTATA [CACACA_site1989]	6.7
ATTATTTTTTTTGTTACACACATGACTTATTTTTAT [CACACA_site3228]	6.99
TTAATTATAAGAAAAAGTACTCATTACATTATAGAA [XGTACX_site678]	6.12
ATATAAATATTCCACACACACACAAAAAAAAAAAAA [CACACA_site7678]	6.44
TAGTCGTTTTTTTAATGTACTCACGCATAATATAAT [XGTACX_site6499]	6.55
AAAATATGTATGTAAAGTACTAATATACAAATTTTT [XGTACX_site5186]	6.23
TATTTTTATATATGACGTACTCTACAATTATTAATG [XGTACX_site5818]	6.54
TTTTTTTTTTTTGATGCACACACCTGAACGAGTTAA [CACACA_site317]	7.95
TATATGAACTTATATACACACCATTTTTGTAAATCT [CACACA_site4547]	6.53
TATAATATATTATATACACACATTATGAAATCCACA [CACACA_site1330]	6.86
AACACGCGCAGACACACACACACACCCACATATATA [CACACA_site2205]	6.95

Sequence	gcPBM binding intensity (ln)
ATTTTGATGCATGGGTTGCACTAACTTTTGCCCAGA	8.83
AAACAATACTGATATTGTACATAATAAAAAAAAATA [XGTACX_site3330]	6.46
ATAAATATATTTTATAGTACATAAATATCAAAAAAA [XGTACX_site2334]	6.3
AGTATACAGATATATACACACATATTTATATTTATA [CACACA_site6394]	6.44
CATACATACCTATATACACACATATAAAATAATATA [CACACA_site7290]	6.97
TGTTATTATTTGTACACACACATATATATCCTTGTT [CACACA_site3616]	6.98
GGCAACATTTGAAACACACACACATACAAACAAACA [CACACA_site3307]	7.2
TCTATATGTTGATTCACACATAAAGAATAAATAAAA [CACACA_site6017]	6.19
AAAAAAAATTATATATGTACTTATTAATCCTTTTAT [XGTACX_site1387]	6.11
TATAATAATAATAATAATAATAATAATAATAATAAT [CACACA_negctrl_site905]	6.89
CGCATAAAGACAAGAACACACATATAGATTGTAGTA [CACACA_site3693]	6.15
AAGATGATAAAATATGTACACACAGTTTATACATTT [CACACA_site9341]	6.03
TTATATATTAAGAAATGTACGAAAAAAAAAATTATA [XGTACX_site3893]	6.4
GAAATAAAAGATGGTTGTACACCGTTTTCTCATATA [XGTACX_site5368]	6.33
TACATATATGATAAAAGTACATATAAATATACATAA [XGTACX_site3804]	6.18
TATATGAATAAACATTGTACGTAAATATTAACTATC [XGTACX_site543]	6.71
ACATTTTAAATACGATGTACTTGAGTTTTTTTTAAA [XGTACX_site5833]	6.3
AATTATTTATTGAGAGTGCAACAAATTATTTCAAAT [GTGCAC_site9461]	7.66
TTTTTTTGCATGAGCAATAAAAAAGGCTTGTTCAAA [CACACA_negctrl_site1615]	7.43

Sequence	gcPBM binding intensity (ln)
CACCCACCCAGACACACACACACACCCCCACCCATA [CACACA_site367]	6.88
AAAAAAATAATGTATATATAAATTTATTTACATATG [GTGCAC_negctrl_site107]	6.07
TATATATTTAGTTAGTGTACAAGTTATTTAGTAGTT [XGTACX_site5133]	6.76
CATATTTTCTTGTGTACACATTTATTTTATACTATA [CACACA_site6032]	8.85
CAAATAAATTAAAGGTGTACTTTTATAGTTACGACA [XGTACX_site3926]	6.01
TAAAAAATAAGATATACACACATATATTTATTTATA [CACACA_site7158]	6.28
TAAAAAATTTTCGCGTGTACGCAAGAAAAAAAAAAT [XGTACX_site3058]	6.35
TTTTTGCCATATTACACACACACATGGAAACCCCCT [CACACA_site4994]	7.58
AAAGAGAACATAAGTACACACATGTTCTTTTAGTAA [CACACA_site2824]	6.01
ATAAATATGTATTGCTGTACATATATATAAATTATC [XGTACX_site8411]	6.37
AATAGGAAAACCTATACACACTTTAAAAAAAATATA [CACACA_site4977]	6.14
AAAAAAAAAAAAAAAACACACAAAAGCAAGAAAAAC [CACACA_site3198]	6.61
AAAGTAAAAACACATACATGCATATACACATATAAC [TGCATGCA_site341]	7.18
AAATATTTAAATATTATGTATGATTATATATATATA [CACACA_negctrl_site590]	8.88
AAATAAATAAATAAATGTACACATATATATATATAT [XGTACX_site7787]	9.45
TTTCTTATTTTTTTCACACACTAAACATTTCAAATG [CACACA_site5259]	7.01
TCAATAAGATTATAAAGTACTTTTGAAGATATTATA [XGTACX_site7489]	6.13
CTTAATATATGTGGCACACATGTGGAGTCCTATTAA [CACACA_site4281]	6.7
AAAAAAATATTAATGTGTACATAATAATAACATATA [XGTACX_site8319]	6.55
